{"source": "PubChem BioAssay AID686971", "about": "(National Center for Advancing Translational Sciences (NCATS), 2013)", "note": "In all, about 360,000 compounds went through this assay and about 7,500 (2.1%) were called active. Inconclusive results, whose numbers are uncertain, are shown with a selection of clear calls. Calls come from the whole dose curve; as a rule, active = well fitted cell-killing curve with a large enough effect; inconclusive = small, poorly fitted or top-dose-only effect, or effect the other way, or another doubt; inactive = no such curve, though single readings can be large or run the other way. Potencies of inconclusive entries are left out as doubtful fits.", "data": [{"assay": "qHTS for induction of synthetic lethality in tumor cells producing 2HG: qHTS for the HT-1080-IDH1KD cell line; note: potency is the fitted concentration of half-maximal effect; tags give direction and shape of the fitted curve;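 for activity, negative = toxicity: 0% = DMSO wells and -100% = cell-free medium wells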", "conditions": "HT-1080 IDH1 knockdown viability, ATP luminescence, 48 h; activity, negative = toxicity: at 46.1 µM (top of the series) unless noted", "outline": "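HT-1080-IDH1KD cells (IDH1 knocked down), 750/well in RPMI with 5% FBS, treated with compound 48 h at 37 degrees C. Viability by CellTiter-Glo luminescence, normalised to DMSO and no-cell wells; concentration-response curves classed.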", "values": [{"molecule": "CC1CCCCN1Cc1c(O)ccc2c(=O)c(-c3nc4ccccc4s3)c(N)oc12", "note": "(configuration not stated)", "Potency": "inconclusive [cytotoxic, single point]"}, {"molecule": "CN1/C(=C\\C(=O)Nc2cccc(Cl)c2)C(C)(C)c2ccccc21", "Potency": "inconclusive [cytotoxic, single point]"}, {"molecule": "COC(=O)c1nn(-c2ccc(-c3ccccc3)cc2)cc1O", "Potency": "inconclusive [cytotoxic, single point]"}, {"molecule": "COC(=O)N/N=C\\c1ccccc1OC/C=C/c1ccccc1", "Potency": "inconclusive [cytotoxic, single point]"}, {"molecule": "COc1ccccc1N1CCN(C(=O)COc2ccc(C)cc2Br)CC1", "activity, negative = toxicity": "inactive: -16.2%"}, {"molecule": "Cc1ccc(S(=O)(=O)CC2CSc3nc4ccccc4n32)cc1", "note": "(configuration not stated)", "Potency": "inconclusive [cytotoxic, partial curve]"}, {"molecule": "CCn1c(SCC(=O)N/N=C/c2ccc(C)s2)nc2ccccc21", "Potency": "inconclusive [cytotoxic, partial curve]"}, {"molecule": "Clc1cccc(Cl)c1CSc1nnc(-c2sccc2-n2cccc2)o1", "activity, negative = toxicity": "inactive: -3.37%"}, {"molecule": "CCNc1ccc(Br)cc(C(=O)/C=C/c2ccc(Cl)cc2)c1=O", "Potency": "inconclusive [cytotoxic, single point]"}, {"molecule": "CC1CCN(C(=O)CSc2nnc(-c3cc4ccccc4cc3O)n2Cc2ccco2)CC1", "activity, negative = toxicity": "inactive: -6.32%"}, {"molecule": "COC(=O)c1[nH]c2cc(OC)ccc2c1NC(=O)CN1CCN(c2cccc(C)c2)C(C)C1", "note": "(configuration not stated)", "Potency": "inconclusive [cytotoxic, single point]"}, {"molecule": "C/C(=N\\NC(=O)CCCNc1ccccc1)c1ccncc1", "activity, negative = toxicity": "inactive: 3.13%"}, {"molecule": "Clc1ccsc1-c1csc(-c2cccnc2)n1", "Potency": "inconclusive [cytotoxic, partial curve]"}, {"molecule": "CCN=C1S/C(=C/c2ccc(-c3ccc(F)cc3)o2)C(=O)N1CC", "Potency": "inconclusive [rising, single point]"}, {"molecule": "COC(=O)[C@]12CCCCC=C1N(CCc1ccc(OC)c(OC)c1)C(=O)[C@H](CC(=O)N1CCC(c3ccccc3)CC1)C2", "Potency": "inconclusive [cytotoxic, partial curve]"}, {"molecule": "Brc1ccc2[nH]c3c(NCc4ccccn4)ncnc3c2c1", "Potency": "active: 16.4 µM"}, {"molecule": "Cc1nn2cc(-c3cccc(Cl)c3)cnc2c1Cl", "Potency": "inconclusive [cytotoxic, single point]"}, {"molecule": "Cc1cccc(NC(=O)c2sc(Cl)nc2-c2ccccc2)c1", "activity, negative = toxicity": "inactive: -11.8%"}, {"molecule": "CCCCn1c(CCl)nc2cc(S(=O)(=O)N3CCOCC3)ccc21", "Potency": "inconclusive [cytotoxic, single point]"}, {"molecule": "O=C1CC(=C(c2ccccc2)c2ccccc2)C(=O)N1CCCCN1CCN(c2cccc(Cl)c2)CC1", "Potency": "inconclusive [cytotoxic, single point]"}, {"molecule": "O=C(NNC(=S)NC1CCCCC1)c1ccccc1O", "Potency": "inconclusive [cytotoxic, single point]"}, {"molecule": "CCOC(=O)c1ccc(NC2OC(=O)c3ccccc32)cc1", "note": "(configuration not stated)", "Potency": "inconclusive [cytotoxic, single point]"}, {"molecule": "Nc1ccc(S(=O)(=O)Nc2nccc(/C=C/c3cccc(Br)c3)n2)cc1", "Potency": "inconclusive [cytotoxic, single point]"}, {"molecule": "COc1ccc(C2/C=C\\CC(OCc3ccccc3)CC(=O)N2Cc2cccc(F)c2)cc1", "note": "(configuration not stated)", "Potency": "inconclusive [cytotoxic, single point]"}, {"molecule": "CCN1CCN(CCCNC(=O)c2cc3c(s2)-c2ccccc2OC3)CC1", "Potency": "inconclusive [cytotoxic, single point]"}, {"molecule": "Cc1c(Cl)ccc2c(C(O)CBr)cc(-c3ccccc3)nc12", "note": "(configuration not stated)", "Potency": "inconclusive [cytotoxic, single point]"}, {"molecule": "COC(=O)c1c(-c2ccc(Br)cc2)noc1N", "Potency": "inconclusive [cytotoxic, single point]"}, {"molecule": "CCOC(=O)c1c(C)[nH]c(C(=O)N/N=C/c2cccc(OC)c2)c1C", "Potency": "inconclusive [cytotoxic, partial curve]"}, {"molecule": "O=C(c1ccccc1)C(CCC(CN1CCOCC1)C(=O)c1ccccc1)CN1CCOCC1", "note": "(configuration not stated)", "Potency": "active: 8.2 µM"}, {"molecule": "C=CCn1c(SCc2c(C)noc2C)nc2sc3c(c2c1=O)CCCCC3", "activity, negative = toxicity": "inactive: -24.5%"}, {"molecule": "Cc1ccc(CNC(=O)C2CC(c3ccccc3F)=NO2)cc1", "note": "(configuration not stated)", "Potency": "inconclusive [cytotoxic, single point]"}, {"molecule": "CCn1c(-c2cc(Br)cc(OC)c2O)nc2cc(S(=O)(=O)N(C)C)ccc21", "Potency": "inconclusive [cytotoxic, single point]"}, {"molecule": "Cc1cc(Cl)c(S(N)(=O)=O)cc1OCC(=O)NC1CCCCC1", "activity, negative = toxicity": "inactive: -6.26%"}, {"molecule": "O=C(Nc1cccc2ccccc12)c1ccc([N+](=O)[O-])o1", "Potency": "active: 13 µM"}, {"molecule": "Cc1ccc(-c2nnnn2C2C/C(=N\\NC(N)=S)C3OCC2O3)cc1", "note": "(configuration not stated)", "activity, negative = toxicity": "inactive: 2.04%"}, {"molecule": "O=C(Nc1cccc(F)c1)N(Cc1ccc(Cl)cc1)CC(O)C(F)(F)F", "note": "(configuration not stated)", "Potency": "inconclusive [cytotoxic, single point]"}, {"molecule": "Cc1csc(Nc2ccc(Cl)cc2)[n+]1-c1ccc(Cl)cc1", "Potency": "inconclusive [cytotoxic, single point]"}, {"molecule": "CN1C(=CC=C2C=C(I)C(=O)C(I)=C2)C(C)(C)c2ccccc21", "activity, negative = toxicity": "inconclusive: -14.4% [cytotoxic]"}, {"molecule": "CC1CCN(C(=O)c2[nH]cnc2C(=O)N[C@@H](C)C(=O)OC(C)(C)C)CC1", "Potency": "inconclusive [cytotoxic, partial curve, poor fit]"}, {"molecule": "Fc1ccc(-c2[nH]ncc2CN2CCN(c3ccc(F)cc3)CC2)cc1", "Potency": "inconclusive [cytotoxic, single point]"}, {"molecule": "CN(Cc1ccccc1)C(c1ccnc2ccccc12)c1nnnn1-c1ccc2c(c1)OCCO2", "note": "(configuration not stated)", "Potency": "inconclusive [cytotoxic, single point]"}, {"molecule": "Cc1cc(C)nc(Sc2nc(C)nc3c2oc2ccccc23)n1", "Potency": "inconclusive [cytotoxic, partial curve]"}, {"molecule": "CCOC(=O)N1CCN(C(=O)c2cc(-c3ccc(OCC)cc3)nc3ccccc23)CC1", "Potency": "active: 5.01 µM"}, {"molecule": "Cc1ccc(S(=O)(=O)N2[C@@H](c3ccc(Cl)c(Cl)c3)C(C(=O)O)=C[C@H]2CC2CCCC2)cc1", "activity, negative = toxicity": "inactive: -1.51%"}, {"molecule": "CC(C)CN1CCN(Cc2cccn2-c2ccccn2)CC1CCO", "note": "(configuration not stated)", "activity, negative = toxicity": "inactive: 4.32%"}, {"molecule": "Cc1cccc(CNS(=O)(=O)c2ccc(-c3cnc(C4CC4)o3)cc2)c1", "Potency": "inconclusive [cytotoxic, single point]"}, {"molecule": "O=C(NCCc1ccc(Cl)cc1)Nc1ccc(F)cc1", "activity, negative = toxicity": "inactive: -3.95%"}, {"molecule": "O=C(N/N=C/c1ccccn1)c1cc(Br)ccc1O", "Potency": "inconclusive [cytotoxic, single point]"}, {"molecule": "CC(C)NCCCCOc1ccc(Br)cc1Cl", "Potency": "inconclusive [cytotoxic, single point]"}, {"molecule": "O=S1(=O)CCN(c2ccccc2CC(c2c[nH]c3ccccc23)c2c[nH]c3ccccc23)CC1", "Potency": "inconclusive [cytotoxic, single point]"}, {"molecule": "COc1ccc(OC)c(C2Nc3c(Cl)ccc(C(=O)O)c3C3C=CCC32)c1", "note": "(configuration not stated)", "Potency": "inconclusive [cytotoxic, single point]"}, {"molecule": "CCCCN1C[C@H](Cc2ccccc2)[C@@H](CC(=O)NCc2ccc(OC)cc2)C1=O", "activity, negative = toxicity": "inactive: -4.16%"}, {"molecule": "Cc1cc(O)cc2c1C1CCC3(C)C(O)CCC3C1C=C2", "note": "(configuration not stated)", "Potency": "active: 18.4 µM"}, {"molecule": "CCOC(=O)C1=C(C)NC(C)=C(C(=O)OCC)C1c1cc2ccc(C)cc2[nH]c1=O", "Potency": "active: 8.2 µM"}, {"molecule": "Cc1ccccc1-c1cc2nc(NCCOc3ccccc3Cl)n(C)c(=O)c2s1", "Potency": "inconclusive [cytotoxic, single point]"}, {"molecule": "CCN(C(=O)c1cc(Cl)ccc1OC)c1ccccc1C", "activity, negative = toxicity": "inactive: 3.93%"}, {"molecule": "COc1ccc(C(O)Cn2ccsc2=NC(C)=O)cc1", "note": "(configuration not stated)", "Potency": "active: 11.6 µM"}, {"molecule": "CC(C)(C)Nc1nc(Nc2ccc([N+](=O)[O-])cc2)nc(NC(C)(C)C)n1", "activity, negative = toxicity": "inactive: 17.6%"}, {"molecule": "CCN(CC)CCCNC(=O)c1cc(-c2ccc(Cl)cc2)on1", "Potency": "inconclusive [cytotoxic, single point]"}, {"molecule": "CNNC(=S)Nc1cccc(C(F)(F)F)c1", "activity, negative = toxicity": "inactive: 5.22%"}, {"molecule": "O=Nc1c(O)cc(O)c2ccccc12", "activity, negative = toxicity": "inactive: 4.65%"}, {"molecule": "Cc1ccc(N2CCN(C(=O)c3cc(-c4ccc(F)cc4)[nH]c3C)CC2C)cc1", "note": "(configuration not stated)", "Potency": "active: 18.4 µM"}, {"molecule": "CC(C)C(NC(=O)c1ccccc1NC(=O)c1ccccc1)C(=O)NCCCn1ccnc1", "note": "(configuration not stated)", "activity, negative = toxicity": "inactive: 5.66%"}, {"molecule": "CC(=O)Nc1cc2c(cc1NC(=O)Cn1nc(-c3ccc(F)cc3)ccc1=O)OCCO2", "activity, negative = toxicity": "inactive: 27.1%"}, {"molecule": "Cc1ccc(Nc2c(N)c(=O)oc3ccccc23)cc1", "Potency": "inconclusive [cytotoxic, partial curve]"}, {"molecule": "Cc1cccn2c(=O)c3cc(C(=O)NCCN4CCOCC4)c(=N)n(Cc4ccc(F)cc4)c3nc12", "Potency": "inconclusive [cytotoxic, partial curve]"}, {"molecule": "Cn1cc(C2OC(=O)c3ccccc32)c2ccccc21", "note": "(configuration not stated)", "Potency": "inconclusive [cytotoxic, partial curve]"}, {"molecule": "CCOC(=O)c1ccn(S(=O)(=O)c2ccc(C)cc2)c1-c1ccccc1", "Potency": "inconclusive [cytotoxic, single point]"}, {"molecule": "O=C(N/N=C\\C=C\\c1ccc([N+](=O)[O-])o1)c1cccs1", "Potency": "active: 13 µM"}, {"molecule": "CC1(C(=O)NS(=O)(=O)c2ccccc2)CCN1C(=O)COc1ccc(Cl)cc1", "note": "(configuration not stated)", "Potency": "inconclusive [rising, single point]"}, {"molecule": "O=C(CSc1nnc(-c2cc3ccccc3cc2O)n1Cc1ccco1)c1ccc(F)cc1", "Potency": "inconclusive [cytotoxic, single point]"}, {"molecule": "Cc1cccc(C2c3[nH]c4ccccc4c3CCN2C(=O)Cc2n[nH]c(C)n2)n1", "note": "(configuration not stated)", "activity, negative = toxicity": "inactive: -0.0948%"}]}]}
